Measured values: article PMC11431708
These are yes or no findings as the source states them, for the method shown. Some results given as binding are weak or reduced against the parent protein; the word gives no strength.

By UniProt entry, the sequences of proteins in these tests, tags left out.
UniProt Q84TH9: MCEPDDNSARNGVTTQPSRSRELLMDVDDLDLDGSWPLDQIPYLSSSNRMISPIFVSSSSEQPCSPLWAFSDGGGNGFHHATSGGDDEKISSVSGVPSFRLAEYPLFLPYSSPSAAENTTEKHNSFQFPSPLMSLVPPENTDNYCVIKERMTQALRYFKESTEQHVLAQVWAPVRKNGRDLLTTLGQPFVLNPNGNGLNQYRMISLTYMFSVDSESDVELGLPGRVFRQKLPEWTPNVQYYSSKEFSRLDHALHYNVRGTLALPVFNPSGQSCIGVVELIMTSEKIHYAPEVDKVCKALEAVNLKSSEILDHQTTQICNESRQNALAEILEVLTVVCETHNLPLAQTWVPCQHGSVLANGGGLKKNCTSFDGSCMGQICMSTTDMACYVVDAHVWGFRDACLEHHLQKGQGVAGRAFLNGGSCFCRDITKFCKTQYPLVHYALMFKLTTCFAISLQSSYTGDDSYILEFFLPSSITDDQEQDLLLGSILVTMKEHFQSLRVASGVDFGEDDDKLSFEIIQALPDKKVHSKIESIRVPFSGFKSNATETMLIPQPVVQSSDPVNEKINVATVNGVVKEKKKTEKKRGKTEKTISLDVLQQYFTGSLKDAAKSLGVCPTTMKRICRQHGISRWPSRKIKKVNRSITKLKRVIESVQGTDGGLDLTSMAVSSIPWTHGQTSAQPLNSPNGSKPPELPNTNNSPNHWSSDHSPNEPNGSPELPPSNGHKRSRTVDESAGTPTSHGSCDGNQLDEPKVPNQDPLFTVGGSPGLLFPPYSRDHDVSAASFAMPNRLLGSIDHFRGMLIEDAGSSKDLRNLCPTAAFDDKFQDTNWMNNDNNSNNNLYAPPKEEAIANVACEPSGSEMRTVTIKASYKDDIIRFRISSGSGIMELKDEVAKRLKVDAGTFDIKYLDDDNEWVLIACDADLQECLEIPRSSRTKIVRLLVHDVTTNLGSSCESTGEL
UniProt Q9LSD5: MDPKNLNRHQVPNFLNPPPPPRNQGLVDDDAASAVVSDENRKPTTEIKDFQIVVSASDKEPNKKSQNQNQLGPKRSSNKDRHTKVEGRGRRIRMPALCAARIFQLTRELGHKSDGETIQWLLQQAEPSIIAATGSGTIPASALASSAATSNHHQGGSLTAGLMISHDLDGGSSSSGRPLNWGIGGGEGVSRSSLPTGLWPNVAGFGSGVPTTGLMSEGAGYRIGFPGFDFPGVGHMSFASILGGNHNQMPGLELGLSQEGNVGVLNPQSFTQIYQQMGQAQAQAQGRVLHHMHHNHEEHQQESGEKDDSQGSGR
UniProt O82811: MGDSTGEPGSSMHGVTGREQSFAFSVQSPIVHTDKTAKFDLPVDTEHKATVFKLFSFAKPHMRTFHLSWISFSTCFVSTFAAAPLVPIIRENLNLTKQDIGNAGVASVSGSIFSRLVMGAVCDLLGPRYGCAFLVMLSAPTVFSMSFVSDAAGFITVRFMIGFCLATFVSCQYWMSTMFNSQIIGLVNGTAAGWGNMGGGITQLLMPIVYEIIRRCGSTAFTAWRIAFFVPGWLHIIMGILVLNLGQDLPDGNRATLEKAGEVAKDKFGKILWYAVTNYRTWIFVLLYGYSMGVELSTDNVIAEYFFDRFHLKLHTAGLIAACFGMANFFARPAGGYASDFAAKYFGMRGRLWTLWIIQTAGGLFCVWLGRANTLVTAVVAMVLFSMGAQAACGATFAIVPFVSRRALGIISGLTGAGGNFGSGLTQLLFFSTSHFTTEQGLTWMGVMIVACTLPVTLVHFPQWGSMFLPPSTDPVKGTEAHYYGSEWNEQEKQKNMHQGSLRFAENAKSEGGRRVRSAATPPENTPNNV
UniProt Q8RWY4: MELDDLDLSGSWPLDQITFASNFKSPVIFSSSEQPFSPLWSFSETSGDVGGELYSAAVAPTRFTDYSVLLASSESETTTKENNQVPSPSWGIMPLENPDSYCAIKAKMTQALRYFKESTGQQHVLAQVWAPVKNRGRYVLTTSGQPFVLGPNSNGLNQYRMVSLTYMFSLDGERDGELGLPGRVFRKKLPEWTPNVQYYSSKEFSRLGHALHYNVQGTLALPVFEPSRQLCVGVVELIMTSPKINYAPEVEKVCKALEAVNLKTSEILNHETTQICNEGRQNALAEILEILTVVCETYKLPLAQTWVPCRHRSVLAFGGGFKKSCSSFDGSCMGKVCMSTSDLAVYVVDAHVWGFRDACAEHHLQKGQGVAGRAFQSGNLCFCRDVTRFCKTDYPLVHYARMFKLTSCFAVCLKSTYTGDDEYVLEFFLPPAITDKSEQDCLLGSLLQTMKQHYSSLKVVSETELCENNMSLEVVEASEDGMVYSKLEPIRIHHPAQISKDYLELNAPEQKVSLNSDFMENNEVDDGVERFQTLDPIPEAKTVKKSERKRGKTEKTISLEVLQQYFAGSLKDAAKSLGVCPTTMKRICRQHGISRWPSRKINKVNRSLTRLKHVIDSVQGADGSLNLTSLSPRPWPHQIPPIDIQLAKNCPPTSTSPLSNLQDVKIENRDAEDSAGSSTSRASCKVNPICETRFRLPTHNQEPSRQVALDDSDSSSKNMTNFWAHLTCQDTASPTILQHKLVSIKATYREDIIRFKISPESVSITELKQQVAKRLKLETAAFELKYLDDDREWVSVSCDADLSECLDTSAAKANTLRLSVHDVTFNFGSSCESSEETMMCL

T1: CBL-interacting protein kinase 1 (CIPK1) (Arabidopsis thaliana) (UniProt Q8RWC9)
T1 sequence: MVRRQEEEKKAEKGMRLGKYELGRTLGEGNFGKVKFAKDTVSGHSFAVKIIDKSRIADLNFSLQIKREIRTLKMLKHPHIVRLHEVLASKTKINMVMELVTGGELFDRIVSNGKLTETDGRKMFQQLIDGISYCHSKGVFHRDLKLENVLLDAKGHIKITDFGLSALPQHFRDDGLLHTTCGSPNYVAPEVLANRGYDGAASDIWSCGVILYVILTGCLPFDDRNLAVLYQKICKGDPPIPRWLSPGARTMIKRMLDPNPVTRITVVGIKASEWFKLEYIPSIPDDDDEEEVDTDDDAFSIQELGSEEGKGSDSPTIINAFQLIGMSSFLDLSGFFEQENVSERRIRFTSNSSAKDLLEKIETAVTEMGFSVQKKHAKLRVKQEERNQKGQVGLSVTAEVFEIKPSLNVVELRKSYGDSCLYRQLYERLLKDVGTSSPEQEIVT


molecular target: T1, CBL-interacting protein kinase 1 (CIPK1) (Arabidopsis thaliana); experiment: two-hybrid; yeast two-hybrid; growth on synthetic dropout medium lacking threonine, leucine, and histidine (SD/-TLH); full-length cDNAs; which partner was on AD or BD not stated

binding | Molecule
no binding | NIN-like protein 7 (NLP7) (from UniProt Q84TH9 1-959)
binds | teosintebranched 1/cycloidea/proliferating cell factor 1-20 (TCP20) (from UniProt Q9LSD5 1-314)
no binding | NRT2.1 (from UniProt O82811 1-530)
no binding | NRT2.2 (from UniProt Q9LMZ9 1-522)
no binding | NIN-like protein 6 (NLP6) (from UniProt Q8RWY4 1-841)
no binding | TGACG motif-binding factor 4 (TGA4) (protein, UniProt Q39162 1-364) MNTTSTHFVPPRRFEVYEPLNQIGMWEESFKNNGDMYTPGSIIIPTNEKPDSLSEDTSHGTEGTPHKFDQEASTSRHPDKIQRRLAQNREAARKSRLRKKAYVQQLETSRLKLIHLEQELDRARQQGFYVGNGVDTNALSFSDNMSSGIVAFEMEYGHWVEEQNRQICELRTVLHGQVSDIELRSLVENAMKHYFQLFRMKSAAAKIDVFYVMSGMWKTSAERFFLWIGGFRPSELLKVLLPHFDPLTDQQLLDVCNLRQSCQQAEDALSQGMEKLQHTLAESVAAGKLGEGSYIPQMTCAMERLEALVSFVNQADHLRHETLQQMHRILTTRQAARGLLALGEYFQRLRALSSSWAARQREPT
no binding | NRT1.1/NPF6.3/chlorate resistant 1 (CHL1) (protein, UniProt Q05085 1-590) MSLPETKSDDILLDAWDFQGRPADRSKTGGWASAAMILCIEAVERLTTLGIGVNLVTYLTGTMHLGNATAANTVTNFLGTSFMLCLLGGFIADTFLGRYLTIAIFAAIQATGVSILTLSTIIPGLRPPRCNPTTSSHCEQASGIQLTVLYLALYLTALGTGGVKASVSGFGSDQFDETEPKERSKMTYFFNRFFFCINVGSLLAVTVLVYVQDDVGRKWGYGICAFAIVLALSVFLAGTNRYRFKKLIGSPMTQVAAVIVAAWRNRKLELPADPSYLYDVDDIIAAEGSMKGKQKLPHTEQFRSLDKAAIRDQEAGVTSNVFNKWTLSTLTDVEEVKQIVRMLPIWATCILFWTVHAQLTTLSVAQSETLDRSIGSFEIPPASMAVFYVGGLLLTTAVYDRVAIRLCKKLFNYPHGLRPLQRIGLGLFFGSMAMAVAALVELKRLRTAHAHGPTVKTLPLGFYLLIPQYLIVGIGEALIYTGQLDFFLRECPKGMKGMSTGLLLSTLALGFFFSSVLVTIVEKFTGKAHPWIADDLNKGRLYNFYWLVAVLVALNFLIFLVFSKWYVYKEKRLAEVGIELDDEPSIPMGH
no binding | NRT2.5 (protein, UniProt Q9LPV5 1-502) MEVEGKGGEAGTTTTTAPRRFALPVDAENKATTFRLFSVAKPHMRAFHLSWFQFFCCFVSTFAAPPLLPVIRENLNLTATDIGNAGIASVSGAVFARIVMGTACDLFGPRLASAALTLSTAPAVYFTAGIKSPIGFIMVRFFAGFSLATFVSTQFWMSSMFSGPVVGSANGIAAGWGNLGGGATQLIMPIVFSLIRNMGATKFTAWRIAFFIPGLFQTLSAFAVLLFGQDLPDGDYWAMHKSGEREKDDVGKVISNGIKNYRGWITALAYGYCFGVELTIDNIIAEYFFDRFHLKLQTAGIIAASFGLANFFARPGGGIFSDFMSRRFGMRGRLWAWWIVQTSGGVLCACLGQISSLTVSIIVMLVFSVFVQAACGLTFGVVPFISRRSLGVVSGMTGAGGNVGAVLTQLIFFKGSTYTRETGITLMGVMSIACSLPICLIYFPQWGGMFCGPSSKKVTEEDYYLAEWNDEEKEKNLHIGSQKFAETSISERGRATTTHPQT
